Laboratory results from PubChem BioAssay AID2675 (National Center for Advancing Translational Sciences (NCATS), 2010).
The campaign covered roughly 280,000 compounds. About 100 (0.036%) were called active. The inconclusive results got no clear call from the source; some entries with a clear call stand among them for comparison. The call rests on the fitted dose curve; in most records, active means well fitted inhibition curve with a large enough effect in the signal ratio, with a control signal flat (not every such curve was filed as active); inconclusive means small, poorly fitted or top-dose-only effect, or effect the other way, or a change in a side signal; inactive means no such curve, though single readings can be large or run the other way; the % refers to the signal ratio. A potency beside an inconclusive call is a rough fit, not a confirmed value. “Side channel” marks fits to a control or component signal instead of the main read-out.

Target: Muscleblind-like protein 1 (Homo sapiens) (UniProt Q9NR56)
Experiment: qHTS Assay for Inhibitors of MBNL1-poly(CUG) RNA binding
Details: TR-FRET MBNL1-His/biotin-(CUG)12 binding, 665/545 ratio; activity change, negative = inhibition: at 57.5 µM (top of the series)
Method in brief: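 MBNL1-His + Biotin-(CUG)12, cpd titration 92 nM–58 uM; Tb anti-His Ab 0.055 ng/ul, SA-XL665 5 nM (final); 60 min RT; ratiometric 665/545 nm, Ex 340 nm; normalized to buffer and full-complex controls.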
On the % scale 0 is the no-effect control and ±100 the full control effect; potency means the concentration at half of the fitted maximal effect; tags describe the fitted curve by direction and shape or compound fluorescence and quenching.

Sequence of UniProt Q9NR56 (Q9NR56 whole entry, looked up): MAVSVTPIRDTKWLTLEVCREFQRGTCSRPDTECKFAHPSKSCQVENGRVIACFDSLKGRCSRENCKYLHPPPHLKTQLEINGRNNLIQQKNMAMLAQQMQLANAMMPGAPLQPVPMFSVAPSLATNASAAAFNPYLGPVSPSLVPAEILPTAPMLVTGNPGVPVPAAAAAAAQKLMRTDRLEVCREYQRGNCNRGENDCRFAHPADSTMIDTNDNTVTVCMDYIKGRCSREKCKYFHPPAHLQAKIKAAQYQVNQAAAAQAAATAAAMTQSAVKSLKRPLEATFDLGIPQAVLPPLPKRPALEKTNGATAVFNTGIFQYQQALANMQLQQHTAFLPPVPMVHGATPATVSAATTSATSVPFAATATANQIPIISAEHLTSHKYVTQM

| Structure (SMILES) | activity change, negative = inhibition | Potency |
| --- | --- | --- |
| Cc1ccc(NC(=O)Cn2nc(-c3ccccc3Cl)ccc2=O)c(Br)c1 | inactive: 36.1% |  |
| COc1cc(NS(=O)(=O)c2ccc(-c3ccc(=O)[nH]n3)o2)cc(OC)c1OC |  | inconclusive: 14.1 µM [quencher, side channel, partial curve] |
| CN(C)c1ccc(N=Nc2ccc(S(N)(=O)=O)cc2)cc1 |  | inconclusive: 2.24 µM [quencher, side channel, full curve] |
| COc1ccc(S(=O)(=O)CC(=O)c2cc(C)c(O)c(C)c2)cc1 |  | inconclusive: 14.1 µM [quencher, side channel, partial curve] |
| CC(NC(=O)c1cc(-c2ccncc2)nc2ccc(Cl)cc12)C1CCCO1 (configuration not stated) |  | inconclusive: 25.1 µM [quencher, side channel, single point] |
| COCCCNC(=O)c1ccc2c3c(onc13)-c1ccccc1C2=O |  | inconclusive: 3.55 µM [quencher, side channel, partial curve] |
| NC(=O)CC(NC(=O)Cc1cccc2ccccc12)c1ccc(NCCN2CCCCC2)c([N+](=O)[O-])c1 (configuration not stated) |  | inconclusive: 3.55 µM [quencher, side channel, full curve] |
| COc1ccc2c(c1)CC/C(=C\c1ccc(OC)c(Cn3cccn3)c1)C2=O |  | inconclusive: 31.6 µM [quencher, side channel, partial curve] |
| O=c1c2oc3ccccc3c2[nH]c(=S)n1-c1ccccc1 |  | inconclusive: 0.112 µM [fluorescent, side channel, full curve, poor fit] |
| C#CCN1c2ccccc2Sc2cccnc21 |  | inconclusive: 28.2 µM [quencher, side channel, single point] |
| CCCCCn1nc(C)c(/C=N/NC(=O)c2ccoc2C)c1C |  | inconclusive: 39.8 µM [quencher, side channel, single point] |
| COc1cc(C(=O)Nc2cccc(-c3nc4cc(C)ccc4o3)c2)cc(OC)c1OC |  | inconclusive: 100 µM [inhibitor, partial curve, poor fit] |
| COc1ccccc1C1C(C#N)=C(N)Oc2cc(C)n(Cc3ccccn3)c(=O)c21 (configuration not stated) |  | inconclusive: 31.6 µM [quencher, side channel, single point] |
| COc1ccc(-c2nc(C#N)c(NCc3cccnc3)o2)cc1OC | inactive: 6.85% |  |
| COc1cccc(C2C(C(=O)c3cc4cccc(OC)c4o3)=C(O)C(=O)N2c2cc(C)on2)c1OC (configuration not stated) |  | inconclusive: 22.4 µM [quencher, side channel, single point] |
| CCNC(=S)N/N=C/c1cccc(C)c1 | inactive: 8.74% |  |
| COc1ccc(NC(=O)c2nc(S(=O)(=O)Cc3cccc(C)c3)ncc2Cl)c(OC)c1 |  | inconclusive: 3.16 µM [quencher, side channel, full curve, poor fit] |
| Cc1cn(S(=O)(=O)c2ccc(Br)c3ccccc23)cn1 |  | inconclusive: 8.91 µM [quencher, side channel, partial curve] |
| Cc1cccn2c(=O)c3cc(C(=O)NCC4CCCO4)c(=N)n(Cc4cccnc4)c3nc12 (configuration not stated) |  | inconclusive: 7.08 µM [quencher, side channel, partial curve] |

| Structure (SMILES) | activity change, negative = inhibition | Potency |
| --- | --- | --- |
| CCc1ccc(/C=C/C(=O)c2c(C)cc(C)[nH]c2=O)cc1 | inactive: -5.22% |  |
| Cc1ccc(NC(=O)CS(=O)CC(=O)Nc2ccccc2-c2ccc(C)o2)cc1 (configuration not stated) |  | inconclusive: 31.6 µM [quencher, side channel, single point] |
| Cc1cc(C=C(C#N)C#N)c(C)n1-c1ccccc1 | inactive: 8.74% |  |
| CC(=O)Nc1nc(-c2ccc(Cl)cc2)nc(C)c1C(C)=O |  | active: 25.1 µM |
| COc1ccc2cc3cc(C(=O)NCC4CCCO4)oc3nc2c1 (configuration not stated) |  | inconclusive: 12.6 µM [quencher, side channel, partial curve] |
| O=C(O)c1cc(NC(=O)c2ccc([N+](=O)[O-])cc2)cc(NC(=O)c2ccc([N+](=O)[O-])cc2)c1 |  | inconclusive: 7.94 µM [quencher, side channel, partial curve] |
| Cc1cc(C)nc(NC2=NCC(=O)N2c2ccc(F)c(Cl)c2)n1 | inactive: 3.9% |  |
| CCOc1ccc2nc(NC(=O)C(NS(=O)(=O)c3cccc4nsnc34)C(C)C)sc2c1 (configuration not stated) |  | inconclusive: 15.8 µM [quencher, side channel, partial curve] |
| O=C(N/N=C/c1ccncc1)C1CC1C(=O)N/N=C/c1ccncc1 (configuration not stated) |  | inconclusive: 15.8 µM [quencher, side channel, single point] |
| O=C(/C=C/c1ccco1)NC(=S)Nc1ccc(O)c(-c2nc3ccccc3s2)c1 | inactive: -9.2% |  |
| CN1C(=O)/C(=C\c2ccco2)N=C1c1ccc(Cl)cc1Cl |  | inconclusive: 31.6 µM [quencher, side channel, partial curve] |
| Cc1ccnc(NC(=O)C2CCN(S(=O)(=O)c3cccc4nonc34)CC2)c1 |  | inconclusive: 12.6 µM [quencher, side channel, partial curve] |
| Cc1nc(NC(=O)/C=C/c2ccccc2)sc1C(=O)NCCO |  | inconclusive: 11.2 µM [quencher, side channel, partial curve] |
| O=C(c1ccccc1)c1c2c(cc3sc4ccccc4[n+]13)-c1cccc3cccc-2c13 |  | inconclusive: 15.8 µM [quencher, side channel, partial curve] |
| NC(=O)COc1ccc2cc(-c3ccccc3)c(=O)oc2c1 |  | inconclusive: 3.16 µM [quencher, side channel, full curve] |
| Cc1ccc2oc(=O)c3cc(C(=O)NCCCN4CCCCCC4)sc3c2c1 |  | inconclusive: 12.6 µM [quencher, side channel, partial curve] |
| COCCCNc1nc(N)c([N+](=O)[O-])c(NCc2ccccc2)n1 |  | inconclusive: 28.2 µM [quencher, side channel, partial curve] |
| CCC(C)Nc1c([N+](=O)[O-])cc(C)cc1[N+](=O)[O-] (configuration not stated) |  | inconclusive: 14.1 µM [quencher, side channel, partial curve] |
